# According to PMC4336329 (PLoS ONE, 2015):
# The campaign covered roughly 310,000 compounds. About 14,000 (4.5%) showed an effect of 50% or more. The effect is printed as a negative number. This is one part of the list.
# Target: human ether-à-go-go-related gene (hERG) potassium channel (human, UniProt Q12809)
# Assay: primary screen, population patch clamp on CHO cells stably expressing hERG
# 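Note: peak tail current of the secondary pulse compared with the same well before compound.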
# human ether-à-go-go-related gene (hERG) potassium channel, sequence (Q12809 whole entry, looked up): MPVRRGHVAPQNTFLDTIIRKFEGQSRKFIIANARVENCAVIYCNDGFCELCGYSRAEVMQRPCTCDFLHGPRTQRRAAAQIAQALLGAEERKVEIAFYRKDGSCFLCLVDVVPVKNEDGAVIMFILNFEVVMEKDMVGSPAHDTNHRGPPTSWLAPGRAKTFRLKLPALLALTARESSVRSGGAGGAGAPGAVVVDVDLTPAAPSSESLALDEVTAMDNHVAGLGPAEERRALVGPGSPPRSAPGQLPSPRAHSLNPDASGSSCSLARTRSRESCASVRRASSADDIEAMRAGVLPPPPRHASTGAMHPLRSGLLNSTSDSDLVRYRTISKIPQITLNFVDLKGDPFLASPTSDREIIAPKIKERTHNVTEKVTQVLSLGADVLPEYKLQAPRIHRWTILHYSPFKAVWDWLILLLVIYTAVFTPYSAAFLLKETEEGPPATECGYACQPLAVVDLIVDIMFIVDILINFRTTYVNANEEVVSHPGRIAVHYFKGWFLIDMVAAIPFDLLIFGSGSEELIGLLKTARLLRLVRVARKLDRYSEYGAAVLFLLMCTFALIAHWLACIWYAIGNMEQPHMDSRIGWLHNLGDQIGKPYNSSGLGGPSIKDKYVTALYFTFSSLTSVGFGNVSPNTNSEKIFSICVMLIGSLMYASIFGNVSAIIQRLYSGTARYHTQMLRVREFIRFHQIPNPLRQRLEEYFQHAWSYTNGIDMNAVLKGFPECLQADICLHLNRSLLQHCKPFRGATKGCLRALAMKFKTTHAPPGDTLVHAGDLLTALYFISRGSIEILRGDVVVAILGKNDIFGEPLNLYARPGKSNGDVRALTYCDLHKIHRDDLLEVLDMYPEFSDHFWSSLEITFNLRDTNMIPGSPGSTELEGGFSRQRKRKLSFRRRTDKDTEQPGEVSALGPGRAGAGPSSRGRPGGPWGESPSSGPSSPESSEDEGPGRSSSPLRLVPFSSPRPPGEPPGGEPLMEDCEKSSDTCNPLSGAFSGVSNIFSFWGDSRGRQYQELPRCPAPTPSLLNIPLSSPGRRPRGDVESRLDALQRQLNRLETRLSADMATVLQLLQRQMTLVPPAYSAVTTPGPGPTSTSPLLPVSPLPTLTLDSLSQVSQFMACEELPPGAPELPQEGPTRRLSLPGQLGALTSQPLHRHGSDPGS
row,Compound,"hERG current change (%, negative = inhibition) at 10uM [%]"
1,CN(C)Cc1c(O)ccc2c(-c3ccccc3)cc(=O)oc12,-13.8
2,CN(Cc1cnccn1)C(=O)CC1C(=O)NCCN1Cc1cccc(Oc2ccccc2)c1 (stereo not drawn),-42.6
3,O=C(Nc1cccnc1)c1cc(-c2ccc(Cl)cc2Cl)on1,-8.64
4,CCc1nnc(NC(=O)CSc2nnc(-c3ccccc3O)n2-c2ccc(C)cc2)s1,16.6
5,O=C(CNS(=O)(=O)c1ccc(Br)cc1)N1CCN(Cc2ccccc2)CC1,-17.2
6,CN(C(=O)c1ccc(N2CCCCC2)c([N+](=O)[O-])c1)C1(C)CCS(=O)(=O)C1 (stereo not drawn),-17.4
7,CN(CC(=O)Nc1ncn[nH]1)S(=O)(=O)c1ccc(Br)cc1,8.78
8,Cc1onc(-c2c(Cl)cccc2Cl)c1C(=O)ONC(=O)c1cc(C(F)(F)F)cc(C(F)(F)F)c1,-13.7
9,O=C(NN1C(=O)C2C3CCC(O3)C2C1=O)c1ccco1 (stereo not drawn),6.59
10,Cc1ccc(CN2CCN(C(=O)CCC(=O)Nc3nnc(C(C)C)s3)CC2)c(C)c1,-19.5
11,O=C(NNC(=O)C12CC3CC(CC(C3)C1)C2)c1ccccc1[N+](=O)[O-],4.75
12,Cn1c(=O)cc(OCC(=O)NCCCN2CCN(c3cccc(Cl)c3)CC2)c2ccccc21,-50.8
13,COc1ccc(-c2n[nH]c(C)c2-c2cscn2)c(O)c1,10.5
14,CC(C)C(=O)NNC(=O)CSc1nnc(-c2ccccc2)c(-c2ccccc2)n1,6.28
15,Cc1cc(C)nc(NC(=O)c2c(C(=O)O)noc2C)n1,9.98
16,COc1ccc(NC(=O)CN(C)C(=O)CCc2ccccc2)cc1,4.65
17,O=c1c2cc(NC(=S)NCCCN3CCC(Cc4ccccc4)CC3)ccc2nc2n1CCCCC2,-82.1
18,COc1ccc(Cl)cc1Nc1nc(-c2sc(NC(=O)C(C)(C)C)nc2C)cs1,-5.68
19,COc1ccc(NC(=O)CN(C)C(=O)c2ccc3c(c2)S(=O)(=O)N=C2CCCCCN23)cc1,21.1
20,CCc1nc(N2CCOCC2)c(C#N)c2c1COC(C)(C)C2,7.87
21,CCC1Nc2ncnc(N3CCN(c4ccccc4)CC3)c2N(Cc2ccc(Br)cc2)C1=O.O=C(O)C(F)(F)F (stereo not drawn),-8.47

row,Compound,"hERG current change (%, negative = inhibition) at 10uM [%]"
1,COc1ccc(CN(C(=O)COc2ccc(C)c(C)c2)C2CCS(=O)(=O)C2)cc1OC (stereo not drawn),-25.6
2,CCOC(=O)c1nnn(-c2nc(N3CCCC3)nc(N3CCCC3)n2)c1-c1ccccc1,1.72
3,CSCCC(NS(=O)(=O)c1ccc2c(c1)oc(=O)n2C)C(=O)NCc1ccc(C)cc1 (stereo not drawn),-3.41
4,Cc1cccn2c(=O)c(/C=N/O)c(Nc3ccccc3F)nc12,1.48
5,C/C(CC(=O)Nc1cccc2c1CCCC2)=N\NC(=O)c1cccc2ccccc12,-7.31
6,COC(=O)c1ccc(NC(=O)C(=O)N2CCN(C(=S)NCCc3ccccc3)CC2)cc1,-24.9
7,O=C(N/N=C/c1c[nH]c2ccccc12)c1cc(-c2cccc3ccccc23)n[nH]1,-2.98
8,CN(C)CCC#CC1(O)c2ccccc2-c2ccccc21,14
9,CCN(CC)C(=O)c1[nH]cnc1C(=O)Nc1cccc(Cl)c1,5.51
10,COc1ccccc1C1(O)C(=O)Nc2ccc(C)cc21 (stereo not drawn),0.933
11,COC(=O)C/C=C/[C@@H](C)[C@@H](/C=N/O[C@@H](C)c1cn([C@H](CO)Cc2ccccc2)nn1)NS(=O)(=O)c1ccc(C)cc1,-20.5
12,COc1ccc(CCNC(=O)c2c(-c3ccccc3Cl)noc2C)cc1,1.88
13,COc1ccc(N2CCN(C(c3cc4ccc(C)cc4[nH]c3=O)c3nnnn3C3CCCC3)CC2)cc1 (stereo not drawn),-28.6
14,COc1ccc(NC(=O)N2C[C@@H]3C[C@@H](C2)c2cccc(=O)n2C3)c(OC)c1,-11.5
15,COc1ccc(CC(=O)Nc2ccc(N3CCN(c4ccc(OC)cc4)CC3)c(C#N)c2)cc1,13.1
16,COCOc1cc(O)c(C(=O)/C=C/c2ccccc2)c(OCOC)c1,4.67
17,O=C1C(Nc2ccccc2)=C/C(=N/S(=O)(=O)c2cccs2)c2ccccc21,-1.31
18,C=CCOc1ccccc1CN1CCC(Oc2ccc(C(=O)N3CCCCC3)cc2)CC1,-57.6
19,CCOCCCNC(=O)c1c(C)c(C(=O)OCC)n(C)c1C,15.3
20,O=C(CSc1nc2scc(-c3ccccc3)c2c(=O)[nH]1)N1CCOCC1,-0.626
21,CC(Oc1ccc(Cl)cc1Cl)C(=O)Nc1ccc(N2CCN(C)CC2)cc1 (stereo not drawn),-38.3
